From paper PMC12820563, “FoxP3 forms a head-to-head dimer in vivo and stabilizes its multimerization on adjacent microsatellites”
This is one part of the list.

Each sequence was assayed against T1, MBP-FoxP1dN (Mus musculus, UniProt P58462 326-579) (assay: PD-seq (MBP pull-down with sequencing); 20 mM Tris-HCl pH 7.5, 100 mM NaCl, 1.5 mM MgCl2, 0.4 uM protein, 0.1 uM dsDNA library, 30 min, room temperature, amylose pull-down; high values mean tight binding). Settings: protein: recombinant; tags: His6-MBP; chain copies: 2; dsDNA, one strand shown.
T1 sequence: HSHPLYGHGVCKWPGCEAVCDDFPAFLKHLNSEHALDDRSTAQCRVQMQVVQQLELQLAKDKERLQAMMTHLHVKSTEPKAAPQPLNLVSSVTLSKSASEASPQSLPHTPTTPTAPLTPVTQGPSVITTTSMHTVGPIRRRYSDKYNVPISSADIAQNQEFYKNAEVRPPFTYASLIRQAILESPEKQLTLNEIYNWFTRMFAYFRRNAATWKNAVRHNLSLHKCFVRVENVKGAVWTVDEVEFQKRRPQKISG
How it was run: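 Binding is reads-per-million enrichment of pull-down over input, with replicates pooled. It comes from 30 min room-temperature incubation in Tris pH 7.5 buffer with NaCl and MgCl2 of 0.4 µM His6-MBP-tagged, N-terminally truncated mouse FoxP3 or FoxP1 fragment from E. coli with 0.1 µM Klenow-filled degenerate double-stranded DNA library, followed by amylose resin capture, three washes and Illumina sequencing of the released DNA.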
“GATGATTGTTCTCCCAGCTGATGAATTGGGACAATCGAGTAAACAAATTTTCCTAATCTTTCTGTTCAAGCGCCATCTAC” was tested, and the binding signal was 1.26 RPM ratio (pull-down/input). With “GATGATTGTTCTCCCAGCTGATGAATTCATCAGCTCGAGTAAACAAATTTTCCTAATCTTTCTGTTCAAGCGCCATCTAC” the binding signal was 0.818 RPM ratio (pull-down/input). “GATGATTGTTCTCCCAGCTGATGAATTGCACCCATCGAGTAAACAAATTTTCCTAATCTTTCTGTTCAAGCGCCATCTAC” was tested, and the binding signal was 1.18 RPM ratio (pull-down/input). With “GATGATTGTTCTCCCAGCTGATGAATTTCCAGCGTCGAGTAAACAAATTTTCCTAATCTTTCTGTTCAAGCGCCATCTAC” the binding signal was 0.868 RPM ratio (pull-down/input). “GATGATTGTTCTCCCAGCTGATGAATTAGGTAGATCGAGTAAACAAATTTTCCTAATCTTTCTGTTCAAGCGCCATCTAC” was tested, and the binding signal was 0.974 RPM ratio (pull-down/input). For “GATGATTGTTCTCCCAGCTGATGAATTTTTGTATTCGAGTAAACAAATTTTCCTAATCTTTCTGTTCAAGCGCCATCTAC”, the binding signal was 1.8 RPM ratio (pull-down/input). For “GATGATTGTTCTCCCAGCTGATGAATTCCGCACTTCGAGTAAACAAATTTTCCTAATCTTTCTGTTCAAGCGCCATCTAC”, the binding signal was 0.843 RPM ratio (pull-down/input). With “GATGATTGTTCTCCCAGCTGATGAATTAGTGTACTCGAGTAAACAAATTTTCCTAATCTTTCTGTTCAAGCGCCATCTAC” the binding signal was 1.18 RPM ratio (pull-down/input). “GATGATTGTTCTCCCAGCTGATGAATTAACTTCCTCGAGTAAACAAATTTTCCTAATCTTTCTGTTCAAGCGCCATCTAC” was tested, and the binding signal was 0.903 RPM ratio (pull-down/input). “GATGATTGTTCTCCCAGCTGATGAATTTCGCTTATCGAGTAAACAAATTTTCCTAATCTTTCTGTTCAAGCGCCATCTAC” was tested, and the binding signal was 0.997 RPM ratio (pull-down/input). In the case of “GATGATTGTTCTCCCAGCTGATGAATTCCGTCTGTCGAGTAAACAAATTTTCCTAATCTTTCTGTTCAAGCGCCATCTAC”, the binding signal is reported as 0.835 RPM ratio (pull-down/input). “GATGATTGTTCTCCCAGCTGATGAATTTCAGTATTCGAGTAAACAAATTTTCCTAATCTTTCTGTTCAAGCGCCATCTAC” was tested, and the binding signal was 0.936 RPM ratio (pull-down/input). For “GATGATTGTTCTCCCAGCTGATGAATTAGATTACTCGAGTAAACAAATTTTCCTAATCTTTCTGTTCAAGCGCCATCTAC”, the binding signal was 1.04 RPM ratio (pull-down/input). With “GATGATTGTTCTCCCAGCTGATGAATTCTCACGATCGAGTAAACAAATTTTCCTAATCTTTCTGTTCAAGCGCCATCTAC” the binding signal was 0.795 RPM ratio (pull-down/input). “GATGATTGTTCTCCCAGCTGATGAATTGATTATATCGAGTAAACAAATTTTCCTAATCTTTCTGTTCAAGCGCCATCTAC” was tested, and the binding signal was 1.26 RPM ratio (pull-down/input). “GATGATTGTTCTCCCAGCTGATGAATTTATCAACTCGAGTAAACAAATTTTCCTAATCTTTCTGTTCAAGCGCCATCTAC” was tested, and the binding signal was 1.26 RPM ratio (pull-down/input). With “GATGATTGTTCTCCCAGCTGATGAATTATCGTAATCGAGTAAACAAATTTTCCTAATCTTTCTGTTCAAGCGCCATCTAC” the binding signal was 1.54 RPM ratio (pull-down/input). For “GATGATTGTTCTCCCAGCTGATGAATTCGGTCCATCGAGTAAACAAATTTTCCTAATCTTTCTGTTCAAGCGCCATCTAC”, the binding signal was 0.857 RPM ratio (pull-down/input). With “GATGATTGTTCTCCCAGCTGATGAATTCTGATTTTCGAGTAAACAAATTTTCCTAATCTTTCTGTTCAAGCGCCATCTAC” the binding signal was 1.03 RPM ratio (pull-down/input). “GATGATTGTTCTCCCAGCTGATGAATTTTGTGCATCGAGTAAACAAATTTTCCTAATCTTTCTGTTCAAGCGCCATCTAC” was tested, and the binding signal was 1.35 RPM ratio (pull-down/input). For “GATGATTGTTCTCCCAGCTGATGAATTTTCAGTATCGAGTAAACAAATTTTCCTAATCTTTCTGTTCAAGCGCCATCTAC”, the binding signal was 1.02 RPM ratio (pull-down/input). In the case of “GATGATTGTTCTCCCAGCTGATGAATTGCAGATGTCGAGTAAACAAATTTTCCTAATCTTTCTGTTCAAGCGCCATCTAC”, the binding signal is reported as 1.27 RPM ratio (pull-down/input). With “GATGATTGTTCTCCCAGCTGATGAATTCACTATTTCGAGTAAACAAATTTTCCTAATCTTTCTGTTCAAGCGCCATCTAC” the binding signal was 1.04 RPM ratio (pull-down/input). For “GATGATTGTTCTCCCAGCTGATGAATTCAAGGAATCGAGTAAACAAATTTTCCTAATCTTTCTGTTCAAGCGCCATCTAC”, the binding signal was 0.926 RPM ratio (pull-down/input). In the case of “GATGATTGTTCTCCCAGCTGATGAATTCACGAAATCGAGTAAACAAATTTTCCTAATCTTTCTGTTCAAGCGCCATCTAC”, the binding signal is reported as 1.03 RPM ratio (pull-down/input). With “GATGATTGTTCTCCCAGCTGATGAATTGAATTCTTCGAGTAAACAAATTTTCCTAATCTTTCTGTTCAAGCGCCATCTAC” the binding signal was 0.839 RPM ratio (pull-down/input). In the case of “GATGATTGTTCTCCCAGCTGATGAATTTCCTTAATCGAGTAAACAAATTTTCCTAATCTTTCTGTTCAAGCGCCATCTAC”, the binding signal is reported as 0.949 RPM ratio (pull-down/input). In the case of “GATGATTGTTCTCCCAGCTGATGAATTAATGTTTTCGAGTAAACAAATTTTCCTAATCTTTCTGTTCAAGCGCCATCTAC”, the binding signal is reported as 2.45 RPM ratio (pull-down/input). With “GATGATTGTTCTCCCAGCTGATGAATTTAATGGCTCGAGTAAACAAATTTTCCTAATCTTTCTGTTCAAGCGCCATCTAC” the binding signal was 0.867 RPM ratio (pull-down/input). “GATGATTGTTCTCCCAGCTGATGAATTAAAGTAGTCGAGTAAACAAATTTTCCTAATCTTTCTGTTCAAGCGCCATCTAC” was tested, and the binding signal was 0.886 RPM ratio (pull-down/input). With “GATGATTGTTCTCCCAGCTGATGAATTGGTTTGTTCGAGTAAACAAATTTTCCTAATCTTTCTGTTCAAGCGCCATCTAC” the binding signal was 1.13 RPM ratio (pull-down/input). In the case of “GATGATTGTTCTCCCAGCTGATGAATTCTAGAATTCGAGTAAACAAATTTTCCTAATCTTTCTGTTCAAGCGCCATCTAC”, the binding signal is reported as 0.916 RPM ratio (pull-down/input).
